Assay results reported in the supplement of paper PMC8728848.
Some of the results follow.

How the values were obtained:
Test in all cases: glycan array binding signal (z-score within array); higher = stronger binding
Conditions in all cases: glycan notation: IUPAC condensed, linker removed
Gal(b1-4)Glc = target: Gal(b1-4)Glc
Method in brief: (§1)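 Negative Z-scores can be read as non-binding. The Z-score is calculated within each array and then averaged across arrays of one protein sequence at different concentrations or buffers and across linkers. Arrays, 3228 in all, were curated from the Consortium for Functional Glycomics database and kept only where the protein sequence was available.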

Gal(b1-4)Glc6S = target: Gal(b1-4)Glc6S
Method in brief: as §1

Gal(b1-4)GlcNAc = target: Gal(b1-4)GlcNAc
Method in brief: as §1

[1] = target: Gal(b1-4)GlcNAc(a1-6)Gal(b1-4)GlcNAc
Method in brief: as §1

Gal(b1-4)GlcNAc(b1-2)Man = target: Gal(b1-4)GlcNAc(b1-2)Man
Method in brief: as §1

[2] = target: Gal(b1-4)GlcNAc(b1-2)Man(a1-3)Man(b1-4)GlcNAc(b1-4)GlcNAc
Method in brief: as §1

[3] = target: Gal(b1-4)GlcNAc(b1-2)Man(a1-3)[Gal(b1-4)GlcNAc(b1-2)Man(a1-6)]Man(b1-4)GlcNAc(b1-4)GlcNAc
Method in brief: as §1

[4] = target: Gal(b1-4)GlcNAc(b1-2)Man(a1-3)[Gal(b1-4)GlcNAc(b1-2)Man(a1-6)]Man(b1-4)GlcNAc(b1-4)[Fuc(a1-6)]GlcNAc
Method in brief: as §1

[5] = target: Gal(b1-4)GlcNAc(b1-2)Man(a1-3)[Gal(b1-4)GlcNAc(b1-2)Man(a1-6)][Gal(b1-4)GlcNAc(b1-4)]Man(b1-4)GlcNAc(b1-4)[Fuc(a1-6)]GlcNAc
Method in brief: as §1

[6] = target: Gal(b1-4)GlcNAc(b1-2)Man(a1-3)[Gal(b1-4)GlcNAc(b1-2)Man(a1-6)][GlcNAc(b1-4)]Man(b1-4)GlcNAc(b1-4)[Fuc(a1-6)]GlcNAc
Method in brief: as §1

[7] = target: Gal(b1-4)GlcNAc(b1-2)Man(a1-3)[GlcNAc(b1-2)Man(a1-6)]Man(b1-4)GlcNAc(b1-4)GlcNAc
Method in brief: as §1

[8] = target: Gal(b1-4)GlcNAc(b1-2)Man(a1-3)[GlcNAc(b1-4)][Gal(b1-4)GlcNAc(b1-2)Man(a1-6)]Man(b1-4)GlcNAc(b1-4)GlcNAc
Method in brief: as §1

[9] = target: Gal(b1-4)GlcNAc(b1-2)Man(a1-3)[Man(a1-6)]Man(b1-4)GlcNAc(b1-4)GlcNAc
Method in brief: as §1

[10] = target: Gal(b1-4)GlcNAc(b1-2)Man(a1-6)Man(b1-4)GlcNAc(b1-4)GlcNAc
Method in brief: as §1

[11] = target: Gal(b1-4)GlcNAc(b1-2)Man(a1-6)[GlcNAc(b1-2)Man(a1-3)]Man(b1-4)GlcNAc(b1-4)GlcNAc
Method in brief: as §1

[12] = target: Gal(b1-4)GlcNAc(b1-2)Man(a1-6)[Man(a1-3)]Man(b1-4)GlcNAc(b1-4)GlcNAc
Method in brief: as §1

[13] = target: Gal(b1-4)GlcNAc(b1-2)[Gal(b1-4)GlcNAc(b1-4)]Man(a1-3)[Gal(b1-4)GlcNAc(b1-2)Man(a1-6)]Man(b1-4)GlcNAc(b1-4)GlcNAc
Method in brief: as §1

[14] = target: Gal(b1-4)GlcNAc(b1-2)[Gal(b1-4)GlcNAc(b1-4)]Man(a1-3)[Gal(b1-4)GlcNAc(b1-2)[Gal(b1-4)GlcNAc(b1-6)]Man(a1-6)]Man(b1-4)GlcNAc(b1-4)GlcNAc
Method in brief: as §1

[15] = target: Gal(b1-4)GlcNAc(b1-2)[Gal(b1-4)GlcNAc(b1-4)]Man(a1-3)[GlcNAc(b1-4)][Gal(b1-4)GlcNAc(b1-2)Man(a1-6)]Man(b1-4)GlcNAc(b1-4)GlcNAc
Method in brief: as §1

[16] = target: Gal(b1-4)GlcNAc(b1-2)[Gal(b1-4)GlcNAc(b1-4)]Man(a1-3)[GlcNAc(b1-4)][Gal(b1-4)GlcNAc(b1-2)[Gal(b1-4)GlcNAc(b1-6)]Man(a1-6)]Man(b1-4)GlcNAc(b1-4)GlcNAc
Method in brief: as §1

[17] = target: Gal(b1-4)GlcNAc(b1-2)[Gal(b1-4)GlcNAc(b1-6)]Man(a1-6)[Gal(b1-4)GlcNAc(b1-2)Man(a1-3)]Man(b1-4)GlcNAc(b1-4)GlcNAc
Method in brief: as §1

[18] = target: Gal(b1-4)GlcNAc(b1-2)[Gal(b1-4)GlcNAc(b1-6)]Man(a1-6)[Gal(b1-4)GlcNAc(b1-2)Man(a1-3)]Man(b1-4)GlcNAc(b1-4)[Fuc(a1-6)]GlcNAc
Method in brief: as §1

[19] = target: Gal(b1-4)GlcNAc(b1-2)[Gal(b1-4)GlcNAc(b1-6)]Man(a1-6)[GlcNAc(b1-4)][Gal(b1-4)GlcNAc(b1-2)Man(a1-3)]Man(b1-4)GlcNAc(b1-4)GlcNAc
Method in brief: as §1

[20] = target: Gal(b1-4)GlcNAc(b1-2)[Gal(b1-4)GlcNAc(b1-6)]Man(a1-6)[GlcNAc(b1-4)][Gal(b1-4)GlcNAc(b1-2)[Gal(b1-4)GlcNAc(b1-4)]Man(a1-3)]Man(b1-4)GlcNAc(b1-4)[Fuc(a1-6)]GlcNAc
Method in brief: as §1

[21] = target: Gal(b1-4)GlcNAc(b1-3)Gal(b1-3)GalNAc
Method in brief: as §1

[22] = target: Gal(b1-4)GlcNAc(b1-3)Gal(b1-3)GlcNAc
Method in brief: as §1

[23] = target: Gal(b1-4)GlcNAc(b1-3)Gal(b1-4)Glc
Method in brief: as §1

[24] = target: Gal(b1-4)GlcNAc(b1-3)Gal(b1-4)GlcNAc
Method in brief: as §1

[25] = target: Gal(b1-4)GlcNAc(b1-3)Gal(b1-4)GlcNAc(b1-2)Man(a1-3)[Gal(b1-4)GlcNAc(b1-3)Gal(b1-4)GlcNAc(b1-2)Man(a1-6)]Man(b1-4)GlcNAc(b1-4)GlcNAc
Method in brief: as §1

[26] = target: Gal(b1-4)GlcNAc(b1-3)Gal(b1-4)GlcNAc(b1-2)Man(a1-3)[Gal(b1-4)GlcNAc(b1-3)Gal(b1-4)GlcNAc(b1-2)Man(a1-6)]Man(b1-4)GlcNAc(b1-4)[Fuc(a1-6)]GlcNAc
Method in brief: as §1

[27] = target: Gal(b1-4)GlcNAc(b1-3)Gal(b1-4)GlcNAc(b1-2)[Gal(b1-4)GlcNAc(b1-3)Gal(b1-4)GlcNAc(b1-6)]Man(a1-6)[Gal(b1-4)GlcNAc(b1-3)Gal(b1-4)GlcNAc(b1-2)Man(a1-3)]Man(b1-4)GlcNAc(b1-4)GlcNAc
Method in brief: as §1

[28] = target: Gal(b1-4)GlcNAc(b1-3)Gal(b1-4)GlcNAc(b1-2)[Gal(b1-4)GlcNAc(b1-3)Gal(b1-4)GlcNAc(b1-6)]Man(a1-6)[Gal(b1-4)GlcNAc(b1-3)Gal(b1-4)GlcNAc(b1-2)Man(a1-3)]Man(b1-4)GlcNAc(b1-4)[Fuc(a1-6)]GlcNAc
Method in brief: as §1

[29] = target: Gal(b1-4)GlcNAc(b1-3)Gal(b1-4)GlcNAc(b1-3)Gal(b1-4)GlcNAc
Method in brief: as §1

[30] = target: Gal(b1-4)GlcNAc(b1-3)Gal(b1-4)GlcNAc(b1-3)Gal(b1-4)GlcNAc(b1-2)Man(a1-3)[Gal(b1-4)GlcNAc(b1-3)Gal(b1-4)GlcNAc(b1-3)Gal(b1-4)GlcNAc(b1-2)Man(a1-6)]Man(b1-4)GlcNAc(b1-4)GlcNAc
Method in brief: as §1

[31] = target: Gal(b1-4)GlcNAc(b1-3)Gal(b1-4)GlcNAc(b1-3)Gal(b1-4)GlcNAc(b1-2)Man(a1-3)[Gal(b1-4)GlcNAc(b1-3)Gal(b1-4)GlcNAc(b1-3)Gal(b1-4)GlcNAc(b1-2)Man(a1-6)]Man(b1-4)GlcNAc(b1-4)[Fuc(a1-6)]GlcNAc
Method in brief: as §1

[32] = target: Gal(b1-4)GlcNAc(b1-3)Gal(b1-4)GlcNAc(b1-3)Gal(b1-4)GlcNAc(b1-2)[Gal(b1-4)GlcNAc(b1-3)Gal(b1-4)GlcNAc(b1-3)Gal(b1-4)GlcNAc(b1-6)]Man(a1-6)[Gal(b1-4)GlcNAc(b1-3)Gal(b1-4)GlcNAc(b1-3)Gal(b1-4)GlcNAc(b1-2)Man(a1-3)]Man(b1-4)GlcNAc(b1-4)[Fuc(a1-6)]GlcNAc
Method in brief: as §1

[33] = target: Gal(b1-4)GlcNAc(b1-3)Gal(b1-4)GlcNAc(b1-3)Gal(b1-4)GlcNAc(b1-3)Gal(b1-4)GlcNAc(b1-2)Man(a1-3)[Gal(b1-4)GlcNAc(b1-3)Gal(b1-4)GlcNAc(b1-3)Gal(b1-4)GlcNAc(b1-3)Gal(b1-4)GlcNAc(b1-2)Man(a1-6)]Man(b1-4)GlcNAc(b1-4)GlcNAc
Method in brief: as §1

B1: PX9937D-bvu-500-26-500 (Bacteroides vulgatus) (protein)
chain: DPVSDITDLNYWKTPEQFDSFVFGLHSRFRSHSWNMFLLGEARSDVFGGIPFGGEATQGMERFPYNTLNAENPGISGFGDLYQNINQMNLFISRTLHTDVLTESARNYYLGQVYGLRAYYMYQLYRSWGDVVFTEEPSLGFEVGKLAKAATPAAEIFEQVKKDIESSLSYFGSDYTIKEKKSLWSKAATLMLKADVYLWSAHRDGGEGDARTAKNALVDIQNNISRSNLDLMDTYQGVFAYDNKGNKEIIFTIHNELFEYNLWNGNNDLFPQADYLGKFYNADGTLINTSVENNFGIMRLMVKLENFKKFLPGDTRRDVTLKDVYNKVENGKLELVGVYPHKYWGVMNGSTRVRCDDYPIYRYSDLLLMLAEAKVLLGEDPATEINRVRRRAFGDAYDASTVGFPNQEVDKRPADAVLQERLFEFMLEGKRWYDLRRFGDSYVLDYTPAEPARLLWPINQGALTNNPLLKQTVGY
Gal(b1-4)Glc
  glycan array binding signal (z-score): 0.83
Gal(b1-4)Glc6S
  glycan array binding signal (z-score): 0.048
Gal(b1-4)GlcNAc
  glycan array binding signal (z-score): 0.081
[1]
  glycan array binding signal (z-score): -0.246
Gal(b1-4)GlcNAc(b1-2)Man
  glycan array binding signal (z-score): 0.153
[2]
  glycan array binding signal (z-score): -0.126
[3]
  glycan array binding signal (z-score): 0.209
[4]
  glycan array binding signal (z-score): 0.582
[5]
  glycan array binding signal (z-score): 2.08
[6]
  glycan array binding signal (z-score): -0.434
[7]
  glycan array binding signal (z-score): -0.074
[8]
  glycan array binding signal (z-score): -0.179
[9]
  glycan array binding signal (z-score): -0.351
[10]
  glycan array binding signal (z-score): -0.199
[11]
  glycan array binding signal (z-score): 0.631
[12]
  glycan array binding signal (z-score): -0.333
[13]
  glycan array binding signal (z-score): -0.128
[14]
  glycan array binding signal (z-score): -0.019
[15]
  glycan array binding signal (z-score): -0.5
[16]
  glycan array binding signal (z-score): -0.227
[17]
  glycan array binding signal (z-score): 0.717
[18]
  glycan array binding signal (z-score): 0.247
[19]
  glycan array binding signal (z-score): -0.177
[20]
  glycan array binding signal (z-score): 5.5
[21]
  glycan array binding signal (z-score): -0.141
[22]
  glycan array binding signal (z-score): -0.222
[23]
  glycan array binding signal (z-score): -0.102
[24]
  glycan array binding signal (z-score): -0.174
[25]
  glycan array binding signal (z-score): 0.66
[26]
  glycan array binding signal (z-score): 0.402
[27]
  glycan array binding signal (z-score): 0.413
[28]
  glycan array binding signal (z-score): 0.184
[29]
  glycan array binding signal (z-score): -0.407
[30]
  glycan array binding signal (z-score): 0.184
[31]
  glycan array binding signal (z-score): 0.333
[32]
  glycan array binding signal (z-score): 1.63
[33]
  glycan array binding signal (z-score): 0.731
